# Experimental data taken from the supplement of paper PMC8728848.
# The other results are listed elsewhere or left out.
# Key:
# Assay in all cases: glycan array binding signal (z-score within array); higher = stronger binding
# Settings in all cases: glycan notation: IUPAC condensed, linker removed
# [1] = target: GlcNAc(a1-3)Gal(b1-4)GlcNAc
# In short: (§1)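 From the Consortium for Functional Glycomics database, 3228 arrays were curated, keeping only those whose protein sequence was available. Binding is given as a within-array Z-score averaged across arrays sharing a protein sequence and across linkers. Negative Z-scores can be read as non-binding.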
# [2] = target: GlcNAc(a1-4)Gal(b1-3)GlcNAc
# In short: as §1
# [3] = target: GlcNAc(a1-4)Gal(b1-4)GalNAc
# In short: as §1
# [4] = target: GlcNAc(a1-4)Gal(b1-4)GlcNAc
# In short: as §1
# [5] = target: GlcNAc(a1-4)Gal(b1-4)GlcNAc(b1-3)Gal(b1-4)Glc
# In short: as §1
# [6] = target: GlcNAc(a1-4)Gal(b1-4)GlcNAc(b1-3)Gal(b1-4)GlcNAc
# In short: as §1
# [7] = target: GlcNAc(a1-4)Gal(b1-4)GlcNAc(b1-3)Gal(b1-4)GlcNAc(b1-3)Gal(b1-4)GlcNAc
# In short: as §1
# [8] = target: GlcNAc(a1-4)Gal(b1-4)GlcNAc(b1-3)Gal(b1-4)[Fuc(a1-3)]GlcNAc(b1-3)Gal(b1-4)[Fuc(a1-3)]GlcNAc
# In short: as §1
# [9] = target: GlcNAc(a1-6)Gal(b1-4)GlcNAc
# In short: as §1
# [10] = target: GlcNAc(b1-2)Gal(b1-3)GalNAc
# In short: as §1
# [11] = target: GlcNAc(b1-2)Man(a1-3)[GlcNAc(b1-2)Man(a1-6)]Man(b1-4)GlcNAc(b1-4)GlcNAc
# In short: as §1
# [12] = target: GlcNAc(b1-2)Man(a1-3)[GlcNAc(b1-2)Man(a1-6)]Man(b1-4)GlcNAc(b1-4)[Fuc(a1-6)]GlcNAc
# In short: as §1
# [13] = target: GlcNAc(b1-2)Man(a1-3)[GlcNAc(b1-4)][GlcNAc(b1-2)Man(a1-6)]Man(b1-4)GlcNAc(b1-4)GlcNAc
# In short: as §1
# [14] = target: GlcNAc(b1-2)Man(a1-3)[GlcNAc(b1-4)][GlcNAc(b1-2)Man(a1-6)]Man(b1-4)GlcNAc(b1-4)[Fuc(a1-6)]GlcNAc
# In short: as §1
# [15] = target: GlcNAc(b1-2)[GlcNAc(b1-4)]Man(a1-3)[GlcNAc(b1-2)Man(a1-6)]Man(b1-4)GlcNAc(b1-4)GlcNAc
# In short: as §1
# [16] = target: GlcNAc(b1-2)[GlcNAc(b1-4)]Man(a1-3)[GlcNAc(b1-4)][GlcNAc(b1-2)Man(a1-6)]Man(b1-4)GlcNAc(b1-4)GlcNAc
# In short: as §1
# [17] = target: GlcNAc(b1-2)[GlcNAc(b1-4)]Man(a1-3)[GlcNAc(b1-4)][GlcNAc(b1-2)[GlcNAc(b1-6)]Man(a1-6)]Man(b1-4)GlcNAc(b1-4)GlcNAc
# In short: as §1
# [18] = target: GlcNAc(b1-2)[GlcNAc(b1-4)]Man(a1-3)[GlcNAc(b1-4)][GlcNAc(b1-2)[GlcNAc(b1-6)]Man(a1-6)]Man(b1-4)GlcNAc(b1-4)[Fuc(a1-6)]GlcNAc
# In short: as §1
# [19] = target: GlcNAc(b1-2)[GlcNAc(b1-6)]Man(a1-6)[GlcNAc(b1-2)Man(a1-3)]Man(b1-4)GlcNAc(b1-4)GlcNAc
# In short: as §1
# [20] = target: GlcNAc(b1-2)[GlcNAc(b1-6)]Man(a1-6)[GlcNAc(b1-2)Man(a1-3)]Man(b1-4)GlcNAc(b1-4)[Fuc(a1-6)]GlcNAc
# In short: as §1
# [21] = target: GlcNAc(b1-2)[GlcNAc(b1-6)]Man(a1-6)[GlcNAc(b1-4)][GlcNAc(b1-2)Man(a1-3)]Man(b1-4)GlcNAc(b1-4)GlcNAc
# In short: as §1
# GlcNAc(b1-3)Fuc = target: GlcNAc(b1-3)Fuc
# In short: as §1
# GlcNAc(b1-3)Gal = target: GlcNAc(b1-3)Gal
# In short: as §1
# [22] = target: GlcNAc(b1-3)Gal(b1-3)GalNAc
# In short: as §1
# GlcNAc(b1-3)Gal(b1-4)Glc = target: GlcNAc(b1-3)Gal(b1-4)Glc
# In short: as §1
# [23] = target: GlcNAc(b1-3)Gal(b1-4)GlcNAc
# In short: as §1
# [24] = target: GlcNAc(b1-3)Gal(b1-4)GlcNAc(b1-2)Man(a1-3)[GlcNAc(b1-3)Gal(b1-4)GlcNAc(b1-2)Man(a1-6)]Man(b1-4)GlcNAc(b1-4)GlcNAc
# In short: as §1
# [25] = target: GlcNAc(b1-3)Gal(b1-4)GlcNAc(b1-2)Man(a1-3)[GlcNAc(b1-3)Gal(b1-4)GlcNAc(b1-2)Man(a1-6)]Man(b1-4)GlcNAc(b1-4)[Fuc(a1-6)]GlcNAc
# In short: as §1
# [26] = target: GlcNAc(b1-3)Gal(b1-4)GlcNAc(b1-2)[GlcNAc(b1-3)Gal(b1-4)GlcNAc(b1-6)]Man(a1-6)[GlcNAc(b1-3)Gal(b1-4)GlcNAc(b1-2)Man(a1-3)]Man(b1-4)GlcNAc(b1-4)GlcNAc
# In short: as §1
# [27] = target: GlcNAc(b1-3)Gal(b1-4)GlcNAc(b1-3)Gal(b1-4)GlcNAc
# In short: as §1
# [28] = target: GlcNAc(b1-3)Gal(b1-4)GlcNAc(b1-3)Gal(b1-4)GlcNAc(b1-2)Man(a1-3)[GlcNAc(b1-3)Gal(b1-4)GlcNAc(b1-3)Gal(b1-4)GlcNAc(b1-2)Man(a1-6)]Man(b1-4)GlcNAc(b1-4)GlcNAc
# In short: as §1
# [29] = target: GlcNAc(b1-3)Gal(b1-4)GlcNAc(b1-3)Gal(b1-4)GlcNAc(b1-2)Man(a1-3)[GlcNAc(b1-3)Gal(b1-4)GlcNAc(b1-3)Gal(b1-4)GlcNAc(b1-2)Man(a1-6)]Man(b1-4)GlcNAc(b1-4)[Fuc(a1-6)]GlcNAc
# In short: as §1
# [30] = target: GlcNAc(b1-3)Gal(b1-4)GlcNAc(b1-3)Gal(b1-4)GlcNAc(b1-2)[GlcNAc(b1-3)Gal(b1-4)GlcNAc(b1-3)Gal(b1-4)GlcNAc(b1-6)]Man(a1-6)[GlcNAc(b1-3)Gal(b1-4)GlcNAc(b1-3)Gal(b1-4)GlcNAc(b1-2)Man(a1-3)]Man(b1-4)GlcNAc(b1-4)[Fuc(a1-6)]GlcNAc
# In short: as §1
# [31] = target: GlcNAc(b1-3)Gal(b1-4)GlcNAc(b1-3)Gal(b1-4)GlcNAc(b1-3)Gal(b1-4)GlcNAc(b1-2)Man(a1-3)[GlcNAc(b1-3)Gal(b1-4)GlcNAc(b1-3)Gal(b1-4)GlcNAc(b1-3)Gal(b1-4)GlcNAc(b1-2)Man(a1-6)]Man(b1-4)GlcNAc(b1-4)GlcNAc
# In short: as §1
# [32] = target: GlcNAc(b1-3)Gal(b1-4)GlcNAc(b1-3)Gal(b1-4)GlcNAc(b1-3)Gal(b1-4)GlcNAc(b1-2)Man(a1-3)[GlcNAc(b1-3)Gal(b1-4)GlcNAc(b1-3)Gal(b1-4)GlcNAc(b1-3)Gal(b1-4)GlcNAc(b1-2)Man(a1-6)]Man(b1-4)GlcNAc(b1-4)[Fuc(a1-6)]GlcNAc
# In short: as §1
# [33] = target: GlcNAc(b1-3)Gal(b1-4)GlcNAc(b1-3)Gal(b1-4)GlcNAc(b1-3)Gal(b1-4)GlcNAc(b1-2)[GlcNAc(b1-3)Gal(b1-4)GlcNAc(b1-3)Gal(b1-4)GlcNAc(b1-3)Gal(b1-4)GlcNAc(b1-6)]Man(a1-6)[GlcNAc(b1-3)Gal(b1-4)GlcNAc(b1-3)Gal(b1-4)GlcNAc(b1-3)Gal(b1-4)GlcNAc(b1-2)Man(a1-3)]Man(b1-4)GlcNAc(b1-4)[Fuc(a1-6)]GlcNAc
# In short: as §1
# [34] = target: GlcNAc(b1-3)Gal(b1-4)GlcNAc(b1-3)Gal(b1-4)GlcNAc(b1-3)Gal(b1-4)GlcNAc(b1-3)Gal(b1-4)GlcNAc(b1-2)Man(a1-3)[GlcNAc(b1-3)Gal(b1-4)GlcNAc(b1-3)Gal(b1-4)GlcNAc(b1-3)Gal(b1-4)GlcNAc(b1-3)Gal(b1-4)GlcNAc(b1-2)Man(a1-6)]Man(b1-4)GlcNAc(b1-4)GlcNAc
# In short: as §1
binder,measurement,setting,value
"CSA (Cytisus scoparius), P29257 (protein) SEELSFSFTKFKTDQKNLILQRDALITPTGKLQLTTVENGKPAAYSLGRALYSTPIHIWDKSTGDEASFATFFSFVISDAPNPSTAATDGLAFFLAPADTQPQSAGGYLGLFEKDSSYNSSNQIVAVEFDTYYNSAWDPQTNPHIGIDVNTIKSKKVSSWGFKNGNVATVLITYQPSSKSLVASLVYPSGQTSDKTSYIISANVDLKATVPEWVRIGFSATTGQTDNYIETHDILSWSFKSKLPATKN",glycan array binding signal (z-score),[1],-0.161
same,glycan array binding signal (z-score),[2],-0.2
same,glycan array binding signal (z-score),[3],-0.174
same,glycan array binding signal (z-score),[4],-0.202
same,glycan array binding signal (z-score),[5],-0.196
same,glycan array binding signal (z-score),[6],-0.154
same,glycan array binding signal (z-score),[7],-0.181
same,glycan array binding signal (z-score),[8],-0.111
same,glycan array binding signal (z-score),[9],-0.19
same,glycan array binding signal (z-score),[10],-0.18
same,glycan array binding signal (z-score),[11],-0.183
same,glycan array binding signal (z-score),[12],-0.139
same,glycan array binding signal (z-score),[13],-0.238
same,glycan array binding signal (z-score),[14],-0.206
same,glycan array binding signal (z-score),[15],-0.158
same,glycan array binding signal (z-score),[16],-0.241
same,glycan array binding signal (z-score),[17],-0.21
same,glycan array binding signal (z-score),[18],-0.166
same,glycan array binding signal (z-score),[19],-0.131
same,glycan array binding signal (z-score),[20],-0.197
same,glycan array binding signal (z-score),[21],-0.222
same,glycan array binding signal (z-score),GlcNAc(b1-3)Fuc,-0.151
same,glycan array binding signal (z-score),GlcNAc(b1-3)Gal,-0.192
same,glycan array binding signal (z-score),[22],-0.184
same,glycan array binding signal (z-score),GlcNAc(b1-3)Gal(b1-4)Glc,-0.204
same,glycan array binding signal (z-score),[23],-0.188
same,glycan array binding signal (z-score),[24],-0.231
same,glycan array binding signal (z-score),[25],-0.148
same,glycan array binding signal (z-score),[26],-0.112
same,glycan array binding signal (z-score),[27],-0.161
same,glycan array binding signal (z-score),[28],0.145
same,glycan array binding signal (z-score),[29],-0.191
same,glycan array binding signal (z-score),[30],-0.13
same,glycan array binding signal (z-score),[31],-0.141
same,glycan array binding signal (z-score),[32],0.013
same,glycan array binding signal (z-score),[33],-0.212
same,glycan array binding signal (z-score),[34],-0.144
